# Assay results published in PubChem BioAssay AID1347417 (National Center for Advancing Translational Sciences (NCATS), 2020).
# Out of some 120,000 compounds screened, about 5,300 (4.4%) were called active. Inconclusive results, whose numbers are uncertain, are shown with a selection of clear calls. Calls follow the shape of the dose curve; as a rule, active = well fitted inhibition curve with a large enough effect; inconclusive = small, poorly fitted or top-dose-only effect; inactive = no such curve, though single readings can be large or run the other way. Potencies beside an inconclusive call are fits to weak or partial responses and may not hold up.
# Assay: qHTS Primary assay for Inhibitors of Plasmodium falciparum Dd2 growth in vitro; also: nearly all actives have a fitted effect of over 65% in size;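 as to activity, negative = inhibition: plate controls were DMSO vehicle for no effect and reference drug for full effect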
# Conditions: P. falciparum Dd2 growth, SYBR Green, 72 h; activity, negative = inhibition: at 28.9 µM (top of the series) unless noted; series mostly up to 28.9 µM
# Method in brief: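 Infected erythrocytes (Dd2, 0.3% parasitemia, 2.5% hematocrit final) are added to compound in RPMI-1640/Albumax II medium, grown 72 h at 37C in low oxygen, then lysed with saponin/Triton-X containing SYBR Green and read by fluorescence.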
# Potency is read from the fitted curve at half-maximal effect; tags tell the direction and shape of the fitted curve.
Compound,Potency,"activity, negative = inhibition",outcome
Cc1noc(C)c1CN1CCCC(c2nccn2Cc2ccccc2)C1 (configuration not stated),"inconclusive: 3.16 µM [inhibitor, partial curve]",–,–
CN(CC(=O)Nc1cccc(C#N)c1)S(=O)(=O)c1cc2c(cc1Cl)NC(=O)CO2,"inconclusive: 6.31 µM [inhibitor, partial curve, poor fit]",–,–
COCCn1ccc2c(C3=CCOCC3)nc(-c3cccc4[nH]ccc34)cc21,"inconclusive: 3.55 µM [inhibitor, single point]",–,–
Cc1cc(C)cc(NC(=O)N2CCC(OC3CCN(S(C)(=O)=O)CC3)CC2)c1,–,inactive: -5.72%,–
COc1cccc([S+](=O)([O-])N2CCc3nc(C(C)C)nc(-c4ccc(Cl)cc4)c3C2)c1,"inconclusive: 12.6 µM [inhibitor, partial curve, poor fit]",–,–
c1ccc(CCNc2ncncc2-c2nc(-c3ccccc3)no2)cc1,"inconclusive: 20 µM [inhibitor, single point]",–,–
Cc1nnc(N2CCC(C(=O)NCc3ccc(N(C)C)cc3)CC2)c2nn(-c3ccccc3)c(C)c12,"inconclusive: 2.51 µM [inhibitor, full curve]",–,–
O=C(NCc1ccco1)N1c2ccccc2CC1c1nc(C2CC2)no1 (configuration not stated),–,–,inactive [at 5.79 µM]
O=C(c1ccc(Cl)cc1)N1CC2(CCCN(C3COC3)C2)Cc2ccccc21 (configuration not stated),–,inconclusive: -107% [inhibitor],–
Cc1cccc(CC(=O)N2CCC3(CC2)CC(O)CCO3)c1 (configuration not stated),"inconclusive: 0.891 µM [inhibitor, full curve]",–,–
CC(C)Cc1cc(C[C@@H]2C[C@H](NC3CCOCC3)C2(C)C)no1,–,–,inactive [at 44.1 µM]
O=C(C1CCc2nnc(C3CCN([S+](=O)([O-])c4ccccc4)CC3)n21)N1CCN(c2ncccn2)CC1 (configuration not stated),–,inactive: 6.76%,–
Cc1ccccc1Cn1cc(-c2ccncc2)cc1C(=O)NC1CC1,"inconclusive: 17.8 µM [inhibitor, single point]",–,–
CCOC(=O)N1CCC(NC(=O)c2cnn(-c3cccc(C)c3)c2-n2cccc2)CC1,"inconclusive: 11.2 µM [inhibitor, single point]",–,–
CCc1ccc(CN2CCOC(Cc3ccc(OC)cc3)C2)o1 (configuration not stated),–,inactive: -11.6%,–
O=C(CCC1CCCC1)N1CCC2(CC1)CC(N(Cc1ccccc1)C1CC1)CCO2 (configuration not stated),active: 12.6 µM,–,–
CC(C)(C)OC(=O)N1CCC(c2c(C(=O)N3CCN(C4CCCCC4)CC3)cnn2-c2cccc(Cl)c2)CC1,active: 10 µM,–,–
O=C(c1ccco1)N1CCN(C(=O)C2CCc3ncc(-c4ccsc4)n3C2)CC1 (configuration not stated),–,inactive: -17.8%,–
CN1C(=O)CO[C@H]2CN(c3ccc(C#N)cn3)C[C@H]21,–,inactive: -19.5% [at 44.1 µM],–
CN1CCN(c2ccc(-c3cc4c(ccn4C)c(C(=O)NCC4CCOCC4)n3)cc2)CC1,"inconclusive: 12.6 µM [inhibitor, single point]",–,–
C#CCN(C)Cc1nc(C2(O)CCN(C(=O)NCCC)CC2)cs1,–,inactive: 14.7% [at 44.1 µM],–

Compound,Potency,"activity, negative = inhibition",outcome
COc1cccc([S+](=O)([O-])N2CCC3(CC2)CC(=O)c2ccccc2O3)c1,–,–,inactive
O=C1C2=C(Nc3ccccc3SC2c2c(F)cccc2Cl)c2ccccc21 (configuration not stated),"inconclusive: 1.26 µM [inhibitor, full curve, poor fit]",–,–
COc1ccc(-n2c(-c3ccc(Cl)cc3)cc3c2CC(C)(C)CC3=O)c(OC)c1,"inconclusive: 12.6 µM [inhibitor, single point]",–,–
Cc1nn(-c2ccccn2)c(C)c1[C@@H]1C=C[C@@H](NC(=O)CSCC(=O)O)C1,"inconclusive: 15.8 µM [inhibitor, single point]",–,–
C[C@]1(CO)[C@H]2Cc3sc(NC(=O)c4c(F)cccc4F)nc3[C@@H](CC(=O)NC3CC3)[C@]2(C)CC[C@H]1O,"inconclusive: 6.31 µM [inhibitor, partial curve, poor fit]",–,–
CC(=O)N1CC2(CCN(CC3CCCCC3)C2)Cc2ccccc21 (configuration not stated),"inconclusive: 8.91 µM [inhibitor, partial curve]",–,–
Cc1c(C(=O)N[C@H]2[C@H]3CCO[C@H]3[C@@H]2N(C)C)[nH]c2c(F)cccc12,"inconclusive: 11.2 µM [inhibitor, partial curve, poor fit]",–,–
Cc1noc(C)c1Cc1ccc(C(=O)N2CCC(C)(c3noc(-c4cccnc4)n3)CC2)o1,"inconclusive: 1.58 µM [inhibitor, partial curve, poor fit]",–,–
CNC(=O)CCn1ncc2cc(OC3CCc4cccc(-c5cccc(CO)c5)c43)ccc21 (configuration not stated),"inconclusive: 12.6 µM [inhibitor, single point]",–,–
Cc1ccc(C)c(S(=O)(=O)NCC(c2ccc(N(C)C)cc2)N2CCOCC2)c1 (configuration not stated),"inconclusive: 20 µM [inhibitor, partial curve, poor fit]",–,–
CN(CCO)C[C@@H]1CN(C(=O)c2nc3ccccc3[nH]c2=O)C[C@@H]1CO,–,inactive: -10.5%,–
Cc1nc(N2CCC(NCCCc3ccncc3)CC2)c2ccsc2n1,"inconclusive: 14.1 µM [inhibitor, single point]",–,–
Cc1cccc(-n2cc(-c3ccccc3)nc2SCC(=O)Nc2ccccc2Cl)c1,"inconclusive: 11.2 µM [inhibitor, single point]",–,–
Cn1cc(CNC(=O)C[C@@H]2C[C@H]3O[C@H](CNC(=O)NC4CCC4)[C@@H](O)[C@H]3O2)cn1,–,inactive: 29.6% [at 44.1 µM],–
CC(Cn1ccc2ccccc21)NC1CCN(c2ccc(C(=O)N(C)C)cc2)CC1 (configuration not stated),"inconclusive: 17.8 µM [inhibitor, single point]",–,–
Cc1noc(C)c1CC(=O)N1CCC(CCOc2ccccc2F)C1 (configuration not stated),–,inactive: -15%,–
COc1cccc(CNC(=O)Cn2c(-c3ccccc3)nc(C)cc2=O)c1,"inconclusive: 17.8 µM [inhibitor, single point]",–,–
COc1ccccc1NC(=O)Cn1c(=O)n(-c2ccc(F)cc2)c(=O)c2c1cc(C)n2C,–,–,inactive
CC(C)Cc1nc2nccc(-c3cccs3)n2n1,"inconclusive: 0.141 µM [inhibitor, full curve, poor fit]",–,–
CCn1ncc(NC(=O)Cn2ncc3cc(-c4ccc(F)cc4F)ccc32)n1,–,inactive: -21%,–
O=C(CSc1nc2ccccc2n1Cc1ccc(F)c(Cl)c1)N1CCN(c2ccc(F)cc2)CC1,"inconclusive: 11.2 µM [inhibitor, single point]",–,–
